Measured values as given in EPA's CvTdb concentration-time database.
This continues a long series; more values of the same kind are listed elsewhere.

Experiments:
Rat [1] = assay: concentration in plasma after dosing; conditions: 20 min; dosed: 2-Methyltetrahydrofuran; 10 mg/kg; iv; Male; F344
Rat [2] = assay: concentration in brain after dosing; conditions: 2 min; dosed: 2-Methyltetrahydrofuran; 10 mg/kg; oral; Male; F344
Rat [3] = assay: concentration in brain after dosing; conditions: 4 h; dosed: 2-Methyltetrahydrofuran; 100 mg/kg; oral; Female; Harlan Sprague Dawley
Rat [4] = assay: concentration in brain after dosing; conditions: 20 min; dosed: 2-Methyltetrahydrofuran; 30 mg/kg; oral; Male; F344
Rat [5] = assay: concentration in plasma after dosing; conditions: 10 min; dosed: 2-Methyltetrahydrofuran; 10 mg/kg; iv; Female; F344
Rat [6] = assay: concentration in brain after dosing; conditions: 1 h; dosed: 2-Methyltetrahydrofuran; 10 mg/kg; oral; Female; F344
Rat [7] = assay: concentration in brain after dosing; conditions: 10 min; dosed: 2-Methyltetrahydrofuran; 100 mg/kg; oral; Male; Harlan Sprague Dawley
Rat [8] = assay: concentration in plasma after dosing; conditions: 0.5 h; dosed: 2-Methyltetrahydrofuran; 10 mg/kg; oral; Male; F344
Rat [9] = assay: concentration in brain after dosing; conditions: 10 min; dosed: 2-Methyltetrahydrofuran; 10 mg/kg; iv; Male; F344
Rat [10] = assay: concentration in brain after dosing; conditions: 1 h; dosed: 2-Methyltetrahydrofuran; 30 mg/kg; oral; Male; F344
Rat [11] = assay: concentration in brain after dosing; conditions: 20 min; dosed: 2-Methyltetrahydrofuran; 10 mg/kg; oral; Female; F344
Rat [12] = assay: concentration in brain after dosing; conditions: 2 h; dosed: 2-Methyltetrahydrofuran; 30 mg/kg; oral; Female; F344
Rat [13] = assay: concentration in brain after dosing; conditions: 10 min; dosed: 2-Methyltetrahydrofuran; 400 mg/kg; oral; Male; F344
Rat [14] = assay: concentration in brain after dosing; conditions: 0.25 h; dosed: 2-Methyltetrahydrofuran; 10 mg/kg; iv; Male; F344
Rat [15] = assay: concentration in plasma after dosing; conditions: 1.5 h; dosed: 2-Methyltetrahydrofuran; 30 mg/kg; oral; Female; F344
Rat [16] = assay: concentration in plasma after dosing; conditions: 0.25 h; dosed: 2-Methyltetrahydrofuran; 10 mg/kg; oral; Male; F344
Rat [17] = assay: concentration in plasma after dosing; conditions: 2 h; dosed: 2-Methyltetrahydrofuran; 10 mg/kg; oral; Male; F344
Rat [18] = assay: concentration in brain after dosing; conditions: 0.5 h; dosed: 2-Methyltetrahydrofuran; 10 mg/kg; iv; Male; F344
Rat [19] = assay: concentration in brain after dosing; conditions: 8 min; dosed: 2-Methyltetrahydrofuran; 30 mg/kg; oral; Female; F344
Rat [20] = assay: concentration in plasma after dosing; conditions: 40 min; dosed: Bromochloroacetic acid; 10 mg/kg; iv; Male; F344
Rat [21] = assay: concentration in plasma after dosing; conditions: 0.75 h; dosed: Bromochloroacetic acid; 100 mg/kg; oral; Male; F344
Rat [22] = assay: concentration in plasma after dosing; conditions: dosed: Bromochloroacetic acid, 100 mg/kg, oral, Male, F344
Rat [23] = assay: concentration in plasma after dosing; conditions: dosed: Bromochloroacetic acid, 40 mg/kg, oral, Female, F344
Rat [24] = assay: concentration in plasma after dosing; conditions: 6 h; dosed: Fluorotelomer alcohol 8+2; 24 mg/kg; oral; Male; Harlan Sprague Dawley
Rat [25] = assay: concentration in plasma after dosing; conditions: 1 h; dosed: Fluorotelomer alcohol 8+2; 80 mg/kg; oral; Female; Harlan Sprague Dawley
Rat [26] = assay: concentration in plasma after dosing; conditions: dosed: Formamide, 600 mg/kg, oral, Male, Harlan Sprague Dawley
Rat [27] = assay: concentration in plasma after dosing; conditions: dosed: Formamide, 90 mg/kg, iv, Male, Harlan Sprague Dawley
Rat [28] = assay: concentration in plasma after dosing; conditions: dosed: Formamide, 600 mg/kg, oral, Female, Harlan Sprague Dawley
Rat [29] = assay: concentration in plasma after dosing; conditions: dosed: Formamide, 36 mg/kg, oral, Female, Harlan Sprague Dawley
Rat [30] = assay: concentration in plasma after dosing; conditions: 5 h; dosed: Formamide; 30 mg/kg; iv; Female; F344
Rat [31] = assay: concentration in plasma after dosing; conditions: dosed: Formamide, 600 mg/kg, oral, Male, Harlan Sprague Dawley; remark: listed apart in the source
Rat [32] = assay: concentration in plasma after dosing; conditions: dosed: Formamide, 600 mg/kg, oral, Male, Harlan Sprague Dawley; remark: listed apart in the source
Rat [33] = assay: concentration in plasma after dosing; conditions: 2 h; dosed: Pyridine; 50 mg/kg; oral; Male; Harlan Sprague Dawley
Rat [34] = assay: concentration in plasma after dosing; conditions: dosed: Pyridine, 5 mg/kg, iv, Female, F344
Rat [35] = assay: concentration in plasma after dosing; conditions: 40 min; dosed: Pyridine; 200 mg/kg; oral; Female; F344
Rat [36] = assay: concentration in plasma after dosing; conditions: dosed: Pyridine, 5 mg/kg, iv, Female, F344; remark: listed apart in the source
Rat [37] = assay: concentration in plasma after dosing; conditions: 5 min; dosed: Pyridine; 0.5 mg/kg; iv; Male; F344
Rat [38] = assay: concentration in plasma after dosing; conditions: 40 min; dosed: Pyridine; 200 mg/kg; oral; Female; Harlan Sprague Dawley

CC1CCCO1 (stereo not drawn) [2-Methyltetrahydrofuran]
Conditions	concentration in brain [µg/g]	concentration in plasma [µg/mL]
Rat [1]	–	7.19
Rat [2]	1.31	–
Rat [3]	35.7	–
Rat [4]	14.4	–
Rat [5]	–	8.84
Rat [6]	1.07	–
Rat [7]	43.5	–
Rat [8]	–	4.92
Rat [9]	5.61	–
Rat [10]	6.79	–
Rat [11]	2.6	–
Rat [12]	1.8	–
Rat [13]	134	–
Rat [14]	5.71	–
Rat [15]	–	3.58
Rat [16]	–	5.85
Rat [17]	–	0.119
Rat [18]	3.01	–
Rat [19]	12	–

O=C(O)C(Cl)Br (stereo not drawn) [Bromochloroacetic acid]
Conditions	concentration in plasma [µg/mL]
Rat [20]	0.201
Rat [21]	40.3

concentration in plasma [µg/mL]
Conditions	0.25 h	3 h	7 h	20 min
Rat [22]	–	–	1.32	23.4
Rat [23]	6	3.4	–	–

OCCC(F)(F)C(F)(F)C(F)(F)C(F)(F)C(F)(F)C(F)(F)C(F)(F)C(F)(F)F [Fluorotelomer alcohol 8+2]
Conditions	concentration in plasma [ng/mL]
Rat [24]	36.1
Rat [25]	627

NC=O [Formamide]
Conditions	concentration in plasma [µg/mL]
Rat [26], 10 min	424
Rat [26], 20 h	488
Rat [27], 5 h	98.9
Rat [27], 72 h	2.6
Rat [28], 2 h	558
Rat [28], 5 min	164
Rat [29], 1.5 h	48.1
Rat [29], 30 h	6.9
Rat [31], 10 min	400
Rat [31], 20 h	457
Rat [32], 8 h	688
Rat [32], 12 h	651

Conditions	concentration in plasma [µg/mL]
Rat [30]	32.3

c1ccncc1 [Pyridine]
Conditions	concentration in plasma
Rat [33]	29 µg/mL
Rat [35]	108 µg/mL
Rat [37]	530 ng/mL
Rat [38]	96.5 µg/mL

concentration in plasma [µg/mL]
Conditions	Rat [34]	Rat [36]
0.5 h	3.26	3.52
8 h	0.954	1
